Results on 88 compounds are retold here after PubChem BioAssay AID1346428 (National Center for Advancing Translational Sciences (NCATS), 2018).

Out of some 48,000 compounds screened, about 1,200 (2.5%) were called active. Another 2% or so got no clear call; they are omitted.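 The calls were made as follows: active = activation of at least 60% and not above a set upper limit (about 1 call in 100 departs from these limits); inconclusive = activation of 40% to 60%, or above that upper limit; inactive = activation under 40%.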 The list shows a part of the results.

In the test the target is Probable G-protein coupled receptor 32 (Homo sapiens) (UniProt O75388). Put plainly: qHTS for Agonists of Human Resolvin D1 Receptor DRV1. Also: 0% is about no effect. The conditions noted are these: CHO-K1 GPR32 beta-arrestin PathHunter luminescence, 90 min; at 76.9 µM; stronger effect = higher value; zero percent set by DMSO-only wells. The gist of the method: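 CHO-K1 cells stably expressing ProLink-tagged GPR32 and Enzyme Activator-tagged beta-arrestin were seeded at 2,500 cells/well overnight, exposed to compounds for 90 min at 37 °C, then read by beta-Gal complementation chemiluminescence after 1 h detection reagent.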
Sequence of UniProt O75388 (O75388 whole entry, looked up): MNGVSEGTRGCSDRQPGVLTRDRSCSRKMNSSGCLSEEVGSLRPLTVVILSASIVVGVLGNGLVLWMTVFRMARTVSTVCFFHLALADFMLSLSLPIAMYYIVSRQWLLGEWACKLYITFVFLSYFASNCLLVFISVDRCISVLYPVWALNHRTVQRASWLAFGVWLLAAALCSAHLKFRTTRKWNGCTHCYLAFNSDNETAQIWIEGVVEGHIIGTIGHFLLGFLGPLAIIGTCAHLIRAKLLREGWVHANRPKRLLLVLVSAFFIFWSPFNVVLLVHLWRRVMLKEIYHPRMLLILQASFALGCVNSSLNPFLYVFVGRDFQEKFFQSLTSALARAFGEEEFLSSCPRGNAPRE
For `COc1cc(NC(=O)CCn2nc(C)cc2C)cc(OC)c1OC`, the activation was inactive: 0.194%.
The same measure for `CCCn1c(=O)sc2cc(NC(=O)c3ccccc3Cl)ccc21`: inactive: 32.6%; for `N[C@@H](CS(=O)O)C(=O)O`: inactive: 11.1%; for `O=C(CSc1nccn1Cc1ccc2c(c1)OCO2)Nc1ccccc1F`: inactive: -14.1%.
With `COc1cccc(N2CCN(C(=O)c3cccn3-c3nnc(N4CCCCC4)s3)CC2)c1`, the activation was inactive: -8.26%.
`O=C1CC(c2ccc(Cl)cc2)CC(=O)N1`: the activation is inactive: -3.05%.
`COc1ccc(-c2cc(C(=O)Nc3ccc4c(c3)OCO4)no2)cc1`: the activation is inactive: -5.4%.
With `CCC1CCCCN1CCCNC(=O)c1cn(C)c2ccc(S(=O)(=O)N(C)C3CCCCC3)cc2c1=O` (stereo not drawn), the activation is inactive: -10.9%.
As for `CC1CC(OC(=O)c2ccccc2O)CC(C)(C)C1` (stereo not drawn), the activation is inactive: -8.77%.
The same measure for `Cc1ccc(-n2ncc3c(=O)n(Cc4cccc(Cl)c4)cnc32)cc1C`: inactive: 3.74%; for `Cc1ccc(CSc2nc3cccnc3n2Cc2ccc(C(=O)NC3CC3)cc2)cc1`: inactive: 1.87%.
`O=C(NCc1ccccc1)c1cccn1-c1nnc(N2CCCCC2)s1`: the activation is inactive: -15.9%.
With `CCc1cccc(NC(=O)C2CCN(S(=O)(=O)c3ccc(Br)s3)CC2)c1`, the activation was inactive: -12.5%.
Take `COc1cc(OC)c(NC(=O)C2=C(C)C(=O)OC23CCN(C(C)=O)CC3)cc1Cl`: the activation is inactive: -2.69%.
`CCOc1ccccc1CNC(=O)c1cnn(-c2ccc(C)cc2)c1-n1cccc1`: the activation is inactive: -13.3%.
For the compound `Cc1ccc(C)c(NC(=O)Nc2cc3c(cc2N2CCCCC2)n(C)c(=O)n3C)c1`, the activation was inactive: -0.548%.
The same measure for `Cc1ccc(NC(=O)Cn2cnc3c(oc4ccccc43)c2=O)cc1Cl`: inactive: 1.22%; for `COc1ccc(NC(=O)CCCOc2cc(=O)n(C)c3ccccc23)c(OC)c1`: inactive: 8.17%; for `COCCNC(=O)CSc1c(C)cnc2c1c(=O)n(C)c(=O)n2C`: inactive: 2.68%.
`C[C@@H](CN1CCC(Cc2ccccc2)CC1)[C@@H](O)c1ccc(O)cc1`: the activation was inactive: -0.303%.
For the compound `Cn1c(NCc2cccc(Cl)c2)nc2ccccc21`, the activation is inactive: -26.9%.
Turning to `CCCn1c2ccccc2c2cnn(CC(=O)NCCc3ccc(S(N)(=O)=O)cc3)c(=O)c21`, the activation was inactive: 2.95%.
As for `CCOc1ccc(NC(=O)c2cc3cc4ccc(C)cc4nc3o2)cc1`, the activation was inactive: 7.35%.
As to `CCN(C(=O)c1ccc(C(=O)N(CC)c2ccccc2C)cc1)c1ccccc1C`, the activation is inactive: -13.5%.
The same measure for `C=Cc1ccc(CN2C(=O)N(c3ccc(C)c(C)c3)S(=O)(=O)c3ccccc32)cc1`: inactive: -1.97%; for `Brc1cccc(-c2nnn3c2nc(NC2CCCCC2)c2ccccc23)c1`: inactive: -7%; for `Cc1ccc(-n2c(=O)c3ccc(C(=O)NCc4ccco4)cc3n(Cc3ccccc3Cl)c2=O)cc1`: inactive: -20.7%.
For `CC1CCCCN1CCNC(=O)c1ccc(Cn2c(SCc3ccccc3)nc3cccnc32)cc1` (stereo not drawn), the activation was inactive: -14.2%.
Regarding `Cc1nn(-c2ccc(N3CCOCC3)nn2)c(C)c1CCC(=O)NCc1ccc(Cl)cc1`, the activation was inactive: -26.4%.
In the case of `CCS(=O)(=O)c1ncc(Cl)c(C(=O)Nc2ccc(S(=O)(=O)N(C)c3ccccc3)cc2)n1`, the activation was inactive: -29.1%.
In the case of `COc1ccc2nc3sc(C(=O)NCCc4ccc(Cl)cc4)cc3cc2c1`, the activation is inactive: -1.2%.
As for `Cc1cccc(C)c1Nc1sc(C(=O)c2ccccc2)c(N)c1S(=O)(=O)c1ccccc1`, the activation was inactive: -27.7%.
In the case of `O=C(O)c1ccc(NC(=O)c2ccc(Cl)c(S(=O)(=O)N3CCCCCC3)c2)cc1`, the activation is inactive: 14.6%.
The same measure for `CN(C1CCCCC1)S(=O)(=O)c1ccc2c(c1)c(=O)c(C(=O)N1CCN(c3ccccc3)CC1)cn2C`: inactive: 38.1%; for `COC(=O)c1ccc(NC(=O)C(C)Sc2nc(=O)cc(N)n2CCc2ccccc2)cc1` (stereo not drawn): inactive: -5.11%.
As for `O=S(=O)(NCCS(=O)(=O)N1CCN(c2ccccc2)CC1)c1ccccc1`, the activation is inactive: -1.79%.
In the case of `Cc1nc2c3ccccc3nc(NNC(=O)CCC(=O)O)n2n1`, the activation was inactive: -11.3%.
The same measure for `COc1ccc(CCNC(=O)c2ccc3c(c2)nc(C)n3-c2ccc(Br)cc2)cc1OC`: inactive: -2.89%.
The same measure for `Cc1ccc(NC(=O)CN2C(=O)CCSc3ccccc32)c(C)c1`: inactive: -5.29%.
On to `O=C(Nc1ccc(Cl)cc1Cl)c1cc(S(=O)(=O)NCc2ccc3c(c2)OCO3)ccc1F`, for which the activation is inactive: 49.4%.
With `N#Cc1cc2nc(O)c(O)nc2cc1[N+](=O)[O-]`, the activation was inactive: 8.27%.
Take `Cc1ccc(Cn2c(CO)cnc2SCc2ccc(F)cc2)cc1`: the activation is inactive: 13.7%.
For `Nc1ccc(S(=O)(=O)NCc2ccccc2)cc1`, the activation is inactive: -8.11%.
As for `CN(C)C(N)=NCCC[C@H](N)C(=O)O`, the activation was inactive: 4.02%.
The same measure for `Cc1ccccc1NC(=O)c1cc2c([nH]c1=O)CC(C)(C)CC2=O`: inactive: 8.55%; for `COc1ccccc1Cn1cc(C(=O)c2ccccc2)c(=O)c2cc(OC)c(OC)cc21`: inactive: 4.24%; for `COc1ccc(-c2cc(C(=O)Nc3cc(C(F)(F)F)ccc3Cl)no2)cc1`: inactive: -5.76%.
On to `Cc1nn(CCC(=O)Nc2ccc(Cl)cc2)c(C)c1S(=O)(=O)N1CCCCC1`, for which the activation was inactive: -3.44%.
`CCOc1ccc(C(=O)Nc2ccc(-c3cc4ccccc4oc3=O)cc2)cc1Br`: the activation was inactive: 10.8%.
The same measure for `CN(C)c1ccc(CNC(=O)C2CCN(c3nnc(-n4cccc4)s3)CC2)cc1`: inactive: 9.49%.
With `COC(=O)[C@H](NC(=O)c1cc(-c2ccccc2)nc2ccccc12)c1ccccc1`, the activation is inactive: -27.8%.
The same measure for `Cc1ccc2scc(N3CCCCC3C)c(=O)c2c1` (stereo not drawn): inactive: -13.9%.
Turning to `COc1ccc(Cn2c(SCC(=O)N3CCN(c4ccc(F)cc4)CC3)nc3ccccc32)cc1`, the activation was inactive: -17.9%.
The same measure for `O=C(CN1CCN(Cc2ccc(F)cc2)C1=O)NCc1ccc(F)cc1`: inactive: -14.7%; for `N[C@H](Cc1c[nH]c2ccccc12)C(=O)O`: inactive: -0.614%.
Consider `COc1ccc(CCNC(=O)CCCn2c(=O)c3ccccc3n(CC(=O)Nc3ccccc3C)c2=O)cc1OC`, for which the activation was inactive: 5.89%.
With `Cc1ccc(C2CC(=O)N(Cc3ccc(F)cc3)c3c2c(C)nn3-c2nc(C)cc(C)n2)cc1` (stereo not drawn), the activation is inactive: -17.4%.
For `Cc1ccccc1CNC(=O)CN1C(=O)CCCc2ccccc21`, the activation was inactive: -12%.
Regarding `Cc1ccc(NC2(c3ccccc3)C(=O)c3ccccc3C2=O)cc1F`, the activation is inactive: -61.5%.
For `CC1CCN(S(=O)(=O)c2ccc3c(c2)N(CC(=O)NCCCOC(C)C)C(=O)CO3)CC1`, the activation is inactive: -7.44%.
Turning to `Cc1sc(C2C(C#N)=C(N)N(c3ccc(Cl)cc3)C3=C2C(=O)CCC3)cc1CN1CCOCC1` (stereo not drawn), the activation was inactive: -32%.
As for `O=C(COc1ccccc1)N(Cc1cccnc1)c1nc2c(F)cc(F)cc2s1`, the activation is inactive: -22.6%.
The same measure for `Cc1ccsc1CN(C(=O)COc1ccccc1Cl)C1CCS(=O)(=O)C1` (stereo not drawn): inactive: -14.9%; for `CCc1ccccc1NC(=O)CN(c1ccccc1OC)S(=O)(=O)c1ccc(C)cc1`: inactive: -4.35%.
On to `COCCNC(=O)Cn1c(-c2cccs2)cc2cc(Cl)ccc21`, for which the activation is inactive: -4.37%.
The same measure for `CCC(C)NC(=O)CCCn1c(=O)c2cccn2c2ccccc21` (stereo not drawn): inactive: 23.6%; for `CCOC(=O)CSc1nc2sc3c(c2c(=O)n1Cc1ccccc1)CC(C(C)C)OC3` (stereo not drawn): inactive: -4.9%; for `COCCNC(=O)CN1C(=O)COc2ccc(S(=O)(=O)N3CCCCCC3)cc21`: inactive: 8.02%.
For `CCC(C(=O)NC1CCCCC1)n1c(SCc2ccccc2F)nc2ccncc21` (stereo not drawn), the activation was inactive: -15.6%.
Consider `COc1ccc(C2C(=O)N(C3CCCCCC3)CC(=O)N2CCc2ccc(Cl)cc2)cc1OC` (stereo not drawn), for which the activation was inactive: -18.5%.
With `CCc1ccc(NC(=O)CSc2ccc(-c3sc(-c4ccccc4)nc3C)nn2)cc1`, the activation is inactive: -5.13%.
The same measure for `Cc1ccccc1C(=O)Nc1cccc(NC(=O)c2ccc(C(C)(C)C)cc2)c1`: inactive: -5.46%; for `Cc1nn(C(C)C(=O)NCCc2ccccc2)c(=O)c2c1sc1ccccc12` (stereo not drawn): inactive: -24.1%.
The same measure for `CCN(Cc1ccccc1)c1nc2c(S(=O)(=O)c3ccccc3)nnn2c2ccc(Cl)cc12`: inactive: -9.3%.
The same measure for `Cc1oc2c(c1C(=O)Nc1ccc(OC(F)(F)F)cc1)C1=NCCN1C=N2`: inactive: -14.6%; for `COc1ccc(-c2nc3ccccc3o2)cc1NC(=O)COc1cc(C)cc(C)c1`: inactive: 2.17%.
For the compound `CCc1ccc(NC(=O)CCc2c(C)nn(-c3ccc(N4CCCC4)nn3)c2C)cc1`, the activation was inactive: -16.9%.
Take `COc1ccc(NS(=O)(=O)c2cnc(N)nc2)cc1Cl`: the activation is inactive: -6.75%.
Consider `COc1ccc(NC(=O)CCS(=O)(=O)c2cc3c4c(c2)CCN4C(=O)CC3)c(OC)c1`, for which the activation is inactive: -16.9%.
On to `CC(=O)c1ccc(Oc2ncnc3c2oc2ccccc23)cc1`, for which the activation was inactive: 0.992%.
Take `Cc1cc(=O)[nH]c2nnc(SCC(N)=O)n12`: the activation was inactive: 2.44%.
The same measure for `O=C(COc1ccc2oc3c(c2c1)CCCC3)Nc1cccc(Br)c1`: inactive: 6.17%.
Regarding `COc1ccc(C(=O)c2c(N)c(C(=O)Nc3ccccc3Cl)c3ccccn23)cc1`, the activation is inactive: -0.874%.
The same measure for `Cc1nnc(N2C(=O)c3oc4ccccc4c(=O)c3C2c2cccc(OCCC(C)C)c2)s1` (stereo not drawn): inactive: 0.609%; for `CCCCc1ccc(C(=O)c2c(N)c(C(=O)Nc3cccc(OC)c3)c3ccccn23)cc1`: inactive: 15.5%.
As to `CC1CCN(C(=O)Cn2cc(SCC(=O)NCc3ccc(F)cc3)c3ccccc32)CC1`, the activation was inactive: -26.9%.
Take `COc1cc(C(=O)NCCc2sc(-c3ccc(C)cc3)nc2C)cc(OC)c1OC`: the activation was inactive: 29.5%.
Consider `COCCCNC(=O)c1c(NC(=O)Cc2coc3cc(C)ccc23)sc2c1CCCC2`, for which the activation was inactive: -23.8%.
